Assay results reported in PubChem BioAssay AID485364 (National Center for Advancing Translational Sciences (NCATS), 2010).
Among all 360,000 compounds or so, about 11,000 (3.1%) were called active. The shares of active, inactive and inconclusive entries below differ from those in the screen. The call rests on the fitted dose curve; in most records, active means well fitted inhibition curve with a large enough effect; inconclusive means small, poorly fitted or top-dose-only effect; inactive means no such curve, though single readings can be large or run the other way. No potency is given beside an inconclusive call; the fits are too rough.

target: Schistosoma mansoni thioredoxin glutathione reductase (TGR) (UniProt Q962Y6); assay: qHTS Assay for the Inhibitors of Schistosoma Mansoni Peroxiredoxins; conditions: purified TGR, DTNB reduction, TNB absorbance 405 nm; activity change, negative = inhibition: at 114 µM (top of the series) unless noted; further: nearly all actives have a fitted effect of over 60% in size
Method in brief: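 TGR 20 nM + NADPH 100 uM (dispensed conc.), cpd preinc 15 min RT; start with NADPH (500 uM addition) then DTNB (15 mM addition). Kinetic TNB absorbance, 405 nm filter. Four-parameter Hill fit across titration.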
On the % scale 0 is the no-effect control and ±100 the full control effect; potency means the concentration at half of the fitted maximal effect; tags describe the fitted curve by direction and shape.

Question: How did the Potency turn out when O=C(O)c1ccccc1C(=O)Nc1ccc(Oc2cccc(C(F)(F)F)c2)nc1 was run?
Answer: inconclusive [inhibitor, partial curve]

Question: How did the Potency turn out when COc1cc(/C=N/N2C(=O)CSC2=S)cc(Br)c1O was run?
Answer: active: 12.6 µM

Question: For COc1ccc(C2C(CC(=O)O)=C(Nc3ccccc3)C(=O)N2c2ccccc2)cc1 (configuration not stated), which Potency is on record?
Answer: inconclusive [inhibitor, partial curve]

Question: For Cc1cc(Nc2ccc(O)cc2)ccc1N, which Potency is on record?
Answer: active: 2 µM

Question: OC(c1ccccc1)c1ccncc1 (configuration not stated) was tested. Which Potency did it give?
Answer: inconclusive [inhibitor, partial curve]

Question: CC(C)CN(C(=O)COC(=O)CCc1nc2ccccc2s1)c1c(N)n(Cc2ccccc2)c(=O)[nH]c1=O was tested. Which “activity change, negative = inhibition” value did it give?
Answer: inactive: -1.7%

Question: Cc1ccc(C)c(S(=O)(=O)N2CCCCC2CCNC(=O)C(=O)NCc2ccncc2)c1 (configuration not stated) was tested. Which “activity change, negative = inhibition” value did it give?
Answer: inactive: -4.35%

Question: With CCOC(=O)c1cc(-c2csc(COc3ccccc3Cl)n2)on1 as the compound, how does the “activity change, negative = inhibition” value read?
Answer: inactive: 5.06%

Question: For COc1cc(C(=O)NCc2ncccc2C)ccc1OC1CCN(C(C)=O)CC1, which Potency is on record?
Answer: inconclusive [inhibitor, single point]

Question: How did the Potency turn out when Cc1ccccc1-c1nc(SCc2cccnc2)c2c(=O)n(C)c(=O)n(C)c2n1 was run?
Answer: active: 44.7 µM

Question: For O=C1CC(=O)N(c2cccc(C(F)(F)F)c2)C(=O)N1, which Potency is on record?
Answer: inconclusive [inhibitor, full curve, poor fit]

Question: For Cc1oc2ccc(OC(=O)N3CCOCC3)cc2c1C(=O)OC(C)C, which Potency is on record?
Answer: inconclusive [inhibitor, single point]

Question: How did the Potency turn out when COc1ccc(C2CC(=O)N3CN(Cc4ccco4)CSC3=C2C#N)cc1 (configuration not stated) was run?
Answer: active: 39.8 µM

Question: With CC(C)CN1CCC(=O)N([C@H](CO)c2ccccc2)CC1 as the compound, how does the “activity change, negative = inhibition” value read?
Answer: inactive: -1.52%

Question: With COc1ccccc1NC(=O)c1ccc(NC(=O)C2COc3ccccc3O2)cc1 (configuration not stated) as the compound, how does the “activity change, negative = inhibition” value read?
Answer: inactive: 7.75%

Question: Which “activity change, negative = inhibition” value does the source give for COc1ccc(CCNc2nc(-c3ccc(O)cc3)cs2)cc1OC here?
Answer: inactive: -26.4%

Question: O=C(NCc1ccccc1)C1=C[C@H](c2csc3ccccc23)C[C@H](OCCCCO)O1 was tested. Which Potency did it give?
Answer: inconclusive [inhibitor, partial curve]

Question: O=c1c2cc(N3CCOCC3)ccc2[nH]c(=S)n1CC1CCCO1 (configuration not stated) was tested. Which Potency did it give?
Answer: inconclusive [inhibitor, single point]

Question: How did the Potency turn out when O=C(CSc1ccc(-c2nc3ccccc3[nH]2)cn1)N1CCN(C(=O)c2ccco2)CC1 was run?
Answer: inconclusive [inhibitor, partial curve]

Question: With O=C(Cn1cc2c(n1)CCCCC2)N1CCc2ccccc2C1 as the compound, how does the “activity change, negative = inhibition” value read?
Answer: inactive: 3.47%

Question: Which Potency does the source give for CN(C)C(CNC(=O)c1ccc2c(=O)n(-c3ccccc3F)c(=S)[nH]c2c1)Cc1ccccc1 (configuration not stated) here?
Answer: inconclusive [inhibitor, partial curve]

Question: How did the “activity change, negative = inhibition” value turn out when O=C(COC(=O)c1ccco1)NCCNC(=O)COC(=O)c1ccco1 was run?
Answer: inactive: 2.36%

Question: How did the “activity change, negative = inhibition” value turn out when CCCCOc1cccc(-c2cc(C(=O)NNC(=S)NCC)c3ccccc3n2)c1 was run?
Answer: inactive: 6.96%

Question: Cn1c(=O)n(C)c2cc(N3CCOCC3)c(NS(=O)(=O)c3ccc(Cl)cc3)cc21 was tested. Which Potency did it give?
Answer: inconclusive [inhibitor, partial curve]

Question: Which “activity change, negative = inhibition” value does the source give for CC1=C(C(=O)Nc2cccc([N+](=O)[O-])c2)C2(CCC(C)CC2)OC1=O (configuration not stated) here?
Answer: inactive: -6.9%

Question: With CCc1ccccc1N(C(=O)CCC(=O)Nc1cc(C)on1)C(C(=O)NC1CCCC1)c1ccco1 (configuration not stated) as the compound, how does the “activity change, negative = inhibition” value read?
Answer: inactive: 0%

Question: For COCCCNc1nc2nonc2nc1N1CCN2CCCC2C1 (configuration not stated), which Potency is on record?
Answer: inconclusive [inhibitor, partial curve]

Question: Which Potency does the source give for CCCOc1ccc(C(=O)NC(=S)NCc2cccnc2)cc1 here?
Answer: inconclusive [inhibitor, partial curve]

Question: With O=C(O)c1ccc(CSc2nc(-c3ccc(Cl)cc3)cc(C(F)(F)F)n2)cc1 as the compound, how does the Potency read?
Answer: inconclusive [inhibitor, full curve, poor fit]

Question: For CC(=O)N/C(=C\c1ccccc1)C(=O)OC(C)C(=O)Nc1ccccc1F (configuration not stated), which Potency is on record?
Answer: inconclusive [inhibitor, partial curve]

Question: CCN(CC)C(=O)c1ccccc1NS(=O)(=O)c1cccs1 was tested. Which Potency did it give?
Answer: inconclusive [inhibitor, partial curve, poor fit]

Question: COc1cccc(N=c2oc3ccc(OC)cc3cc2-c2nc3ccccc3[nH]2)c1 was tested. Which “activity change, negative = inhibition” value did it give?
Answer: inactive: 0.537%

Question: With Oc1ccc(-c2csc(Nc3cccc4ccccc34)n2)cc1O as the compound, how does the Potency read?
Answer: inconclusive [inhibitor, partial curve]

Question: COc1ccc(-c2ccc(N(C)C)cc2)cc1[C@H]1[C@@H]2C=CCC[C@@]2(C)C(=O)N1Cc1ccccc1 was tested. Which Potency did it give?
Answer: inconclusive [inhibitor, partial curve]

Question: For CC(=O)c1cccc(NC(=O)COC(=O)c2ccccn2)c1, which Potency is on record?
Answer: inconclusive [inhibitor, single point]

Question: Which Potency does the source give for Cc1ccc(NC(=S)NCc2cccnc2)cc1 here?
Answer: inconclusive [inhibitor, partial curve]

Question: O=C(CCCc1ccccc1)Nc1ccnn1C1CCN(Cc2ccc(CO)o2)CC1 was tested. Which Potency did it give?
Answer: inconclusive [inhibitor, partial curve]

Question: For Cc1ccc(Cc2nc3ccccc3nc2SCC(=O)NCc2ccccc2Cl)cc1, which “activity change, negative = inhibition” value is on record?
Answer: inactive: -1.64%

Question: How did the Potency turn out when CC(=O)c1ccc(N2CCCCC2)c(F)c1 was run?
Answer: inconclusive [inhibitor, single point]

Question: For COc1ccc(NC(=O)CN(C)C(=O)c2ccc(-c3ccccc3Cl)o2)cc1, which “activity change, negative = inhibition” value is on record?
Answer: inactive: -25.2%

Question: With COc1ccc(N2C(=O)CC(Nc3cccc(C(C)=O)c3)C2=O)cc1OC (configuration not stated) as the compound, how does the Potency read?
Answer: active: 56.2 µM

Question: For CCCNC(=O)c1ccc(COc2ccc(Cl)cc2)o1, which Potency is on record?
Answer: inconclusive [inhibitor, partial curve]

Question: How did the “activity change, negative = inhibition” value turn out when CCOC(=O)[C@H]1[C@H]2COc3cc(OC)ccc3[C@@H]2N2C(=O)N(c3cccc(Cl)c3)C(=O)[C@@]12C was run?
Answer: inactive: -5.97%

Question: Which Potency does the source give for CSCCC1C(C#N)=C(N)Oc2n[nH]c(-c3cccs3)c21 (configuration not stated) here?
Answer: active: 12.6 µM

Question: Which Potency does the source give for COc1ccc(CNc2nc3c(-c4ccc(C)cc4)nnn3c3ccccc23)cc1 here?
Answer: inconclusive [inhibitor, partial curve]

Question: Which Potency does the source give for Cc1nonc1CN(C)C(=O)CC1C(=O)NCCN1Cc1cccc(C(F)(F)F)c1 (configuration not stated) here?
Answer: inconclusive [inhibitor, partial curve]

Question: For CC(=O)N(C)Cc1ccc(C(=O)CCl)cc1, which Potency is on record?
Answer: active: 11.2 µM

Question: Which Potency does the source give for CCC(=O)N1CCc2cc(Br)cc(S(=O)(=O)CCC(=O)N(C)c3cccc(C)c3)c21 here?
Answer: inconclusive [inhibitor, partial curve]

Question: With O=C(Cc1ccccc1[N+](=O)[O-])Nc1ccccc1C(=O)N1CCOCC1 as the compound, how does the “activity change, negative = inhibition” value read?
Answer: inactive: 8.56%

Question: For Cc1cc2cc(C(c3nnnn3C(C)(C)C)N(Cc3ccco3)CC3CCCO3)c(=O)[nH]c2cc1C (configuration not stated), which Potency is on record?
Answer: inconclusive [inhibitor, partial curve]

Question: How did the Potency turn out when O=C(COC(=O)c1ccc([N+](=O)[O-])o1)Nc1cccc(S(=O)(=O)N2CCCCC2)c1 was run?
Answer: inconclusive [inhibitor, partial curve]

Question: How did the Potency turn out when O=C(CCn1cccc1)Nc1ccccc1F was run?
Answer: inconclusive [inhibitor, partial curve, poor fit]

Question: Cc1nc(COC(=O)c2cc(O)c3ccccc3c2O)cs1 was tested. Which Potency did it give?
Answer: active: 17.8 µM

Question: Which Potency does the source give for Cc1nc([N+](=O)[O-])c(Br)n1CC(=O)c1ccc(Cl)cc1 here?
Answer: active: 7.08 µM

Question: How did the Potency turn out when CC(=O)N1CC=C2C(C#N)=C(N)C(C#N)(C#N)C(CCc3ccccc3)C2C1 (configuration not stated) was run?
Answer: active: 39.8 µM

Question: Cc1ccc2cc(C#N)c(SCC(=O)NCc3ccco3)nc2c1 was tested. Which Potency did it give?
Answer: active: 35.5 µM

Question: With OCC1CCCN(Cc2cn(Cc3ccccc3)nc2-c2cc3ccccc3o2)C1 (configuration not stated) as the compound, how does the Potency read?
Answer: inconclusive [inhibitor, single point]

Question: For N#CC1=C(N)C(C#N)(C#N)[C@H](c2ccsc2)[C@H]2COCC=C12, which Potency is on record?
Answer: active: 12.6 µM

Question: Which Potency does the source give for C=CCn1c(O)c(/C=N/NC(=O)c2ccncc2)c(=O)[nH]c1=O here?
Answer: inconclusive [inhibitor, partial curve]

Question: How did the Potency turn out when COc1ccccc1C#Cc1ccc2c(=O)c3ccccc3n(C)c2c1 was run?
Answer: inconclusive [inhibitor, partial curve]

Question: For Cc1cc2cc(CNC(=O)c3cc4ccccc4o3)ccc2n1C, which Potency is on record?
Answer: inconclusive [inhibitor, full curve, poor fit]

Question: How did the Potency turn out when CCOc1ccc(N2C(=O)CC(Sc3nnnn3-c3ccccc3)C2=O)cc1 (configuration not stated) was run?
Answer: active: 10 µM

Question: O=C(O)c1ccc(Sc2nnnn2-c2ccccc2)c([N+](=O)[O-])c1 was tested. Which Potency did it give?
Answer: inconclusive [inhibitor, partial curve]

Question: CCCCCCc1c(C)c2c(cc(C)c3c(C)c(C)oc32)oc1=O was tested. Which “activity change, negative = inhibition” value did it give?
Answer: inactive: -1.39%

Question: How did the “activity change, negative = inhibition” value turn out when Cc1cccc(N2CCN(C(=O)CCCn3c(=O)[nH]c4ccsc4c3=O)CC2)c1C was run?
Answer: inactive: 0.645%

Question: How did the Potency turn out when O=c1ccc(NS(=O)(=O)c2ccccc2)cn1Cc1ccc(Cl)c(Cl)c1 was run?
Answer: inconclusive [inhibitor, partial curve]

Question: How did the Potency turn out when CCNc1nc(Oc2c(Cl)cccc2Cl)cc(C(F)(F)F)n1 was run?
Answer: inconclusive [inhibitor, full curve, poor fit]

Question: O=C(NCc1ccccc1Cl)c1cc(=O)[nH]c2ccccc12 was tested. Which Potency did it give?
Answer: active: 50.1 µM

Question: How did the “activity change, negative = inhibition” value turn out when Cc1cc(C(=O)COc2cccnc2[N+](=O)[O-])c(C)n1-c1ccccc1 was run?
Answer: inactive: -20.9%

Question: O=C(Nc1ccccc1N1CCOCC1)c1ccc(S(=O)(=O)NCc2ccco2)cc1 was tested. Which Potency did it give?
Answer: inconclusive [inhibitor, full curve, poor fit]

Question: CN=C(Nc1cc(C)nn1CCC#N)c1ccc(F)cc1 was tested. Which Potency did it give?
Answer: inconclusive [inhibitor, single point]

Question: Which Potency does the source give for Fc1ccc(Sc2nc(-c3ccccc3)nnc2C(F)(F)F)cc1 here?
Answer: inconclusive [inhibitor, full curve]
